Source: patent US20190322765A1 (Hoffmann-La Roche, published 2019)
Several values for one entry are separate records, joined by “and”; a condition that tells them apart may be missing. Identical values can stand only once.

T1: murine IL-2R βγ heterodimer (β knob γ hole Fc fusion) (murine, UniProt P16297 27-240; P34902 23-263)
T1 construct: also called Mu IL-2R βγ; mouse IL-2R βγ heterodimer; not shown: Fc knob/hole part
T1 sequence (looked up) 1: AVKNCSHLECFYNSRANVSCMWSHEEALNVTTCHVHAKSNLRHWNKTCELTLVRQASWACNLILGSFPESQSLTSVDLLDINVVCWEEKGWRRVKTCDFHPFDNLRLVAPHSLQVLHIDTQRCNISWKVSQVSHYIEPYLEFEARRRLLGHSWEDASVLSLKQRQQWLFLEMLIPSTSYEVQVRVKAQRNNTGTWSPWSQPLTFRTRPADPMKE
T1 sequence (looked up) 2: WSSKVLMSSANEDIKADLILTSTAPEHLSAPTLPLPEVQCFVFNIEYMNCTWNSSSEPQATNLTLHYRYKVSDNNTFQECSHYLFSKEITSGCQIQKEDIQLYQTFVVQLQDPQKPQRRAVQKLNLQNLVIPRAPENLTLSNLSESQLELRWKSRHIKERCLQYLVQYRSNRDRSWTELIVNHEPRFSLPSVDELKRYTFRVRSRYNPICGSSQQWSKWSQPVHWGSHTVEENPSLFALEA

T2: CD25 on human T cells (activated T cells, Treg cells) (human, UniProt P01589 22-272)
T2 sequence (looked up): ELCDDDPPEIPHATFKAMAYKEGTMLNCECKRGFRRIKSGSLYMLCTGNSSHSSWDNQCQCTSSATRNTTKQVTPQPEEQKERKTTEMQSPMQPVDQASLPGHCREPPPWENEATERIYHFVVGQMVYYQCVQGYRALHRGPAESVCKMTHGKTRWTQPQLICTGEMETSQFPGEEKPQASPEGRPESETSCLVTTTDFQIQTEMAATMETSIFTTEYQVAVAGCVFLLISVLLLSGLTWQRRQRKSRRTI

T3: IL-2R βγ heterodimer on human cells (NK92 cells, NK and T cells of PBMC) (human, UniProt P14784 27-551; P31785 23-369)
T3 sequence (looked up) 1: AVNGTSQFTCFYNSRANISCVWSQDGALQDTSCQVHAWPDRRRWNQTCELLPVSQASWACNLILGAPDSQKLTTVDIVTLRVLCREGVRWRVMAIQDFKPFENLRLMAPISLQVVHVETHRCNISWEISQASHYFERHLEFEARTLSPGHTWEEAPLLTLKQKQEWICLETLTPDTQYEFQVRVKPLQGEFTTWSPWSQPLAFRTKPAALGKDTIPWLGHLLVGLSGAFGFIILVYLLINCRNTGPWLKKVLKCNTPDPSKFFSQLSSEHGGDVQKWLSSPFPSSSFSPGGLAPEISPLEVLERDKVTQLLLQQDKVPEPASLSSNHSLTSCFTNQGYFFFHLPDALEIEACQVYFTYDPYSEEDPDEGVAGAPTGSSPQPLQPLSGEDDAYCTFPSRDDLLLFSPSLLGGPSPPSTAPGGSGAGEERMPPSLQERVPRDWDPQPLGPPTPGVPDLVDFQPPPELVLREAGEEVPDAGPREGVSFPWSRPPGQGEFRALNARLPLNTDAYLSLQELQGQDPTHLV
T3 sequence (looked up) 2: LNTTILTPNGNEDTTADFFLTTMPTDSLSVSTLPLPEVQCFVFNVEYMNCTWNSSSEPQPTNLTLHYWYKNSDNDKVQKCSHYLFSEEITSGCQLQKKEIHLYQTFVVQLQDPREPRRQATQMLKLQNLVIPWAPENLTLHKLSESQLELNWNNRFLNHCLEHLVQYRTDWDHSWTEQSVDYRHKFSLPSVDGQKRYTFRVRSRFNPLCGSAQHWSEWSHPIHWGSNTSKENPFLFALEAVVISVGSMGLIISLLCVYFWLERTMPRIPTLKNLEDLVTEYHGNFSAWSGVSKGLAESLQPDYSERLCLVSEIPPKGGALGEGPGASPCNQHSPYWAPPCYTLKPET

T4: human IL-2R α-subunit, monomeric, with AcTev cleavage site and Avi His tag (human)
T4 construct: also called Hu IL-2R α; CD25
T4 chain: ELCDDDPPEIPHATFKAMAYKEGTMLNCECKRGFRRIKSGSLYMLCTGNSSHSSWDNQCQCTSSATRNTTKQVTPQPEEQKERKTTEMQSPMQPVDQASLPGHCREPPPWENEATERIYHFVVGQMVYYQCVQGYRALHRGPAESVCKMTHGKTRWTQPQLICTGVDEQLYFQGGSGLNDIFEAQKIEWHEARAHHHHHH

T5: murine IL-2R α-subunit, recombinant monomeric (murine, UniProt P01590 22-236, limits assumed)
T5 construct: also called Mu IL-2R α
T5 sequence (looked up): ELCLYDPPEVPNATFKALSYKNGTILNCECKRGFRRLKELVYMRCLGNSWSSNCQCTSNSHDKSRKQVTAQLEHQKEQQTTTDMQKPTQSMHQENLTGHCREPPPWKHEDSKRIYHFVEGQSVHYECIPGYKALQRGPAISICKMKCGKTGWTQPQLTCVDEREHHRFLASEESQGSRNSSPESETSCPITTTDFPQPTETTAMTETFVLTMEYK

T6: cynomolgus IL-2R α-subunit, recombinant monomeric (cynomolgus, UniProt H6WS54 22-240)
T6 construct: also called Cyno IL-2R α
T6 sequence: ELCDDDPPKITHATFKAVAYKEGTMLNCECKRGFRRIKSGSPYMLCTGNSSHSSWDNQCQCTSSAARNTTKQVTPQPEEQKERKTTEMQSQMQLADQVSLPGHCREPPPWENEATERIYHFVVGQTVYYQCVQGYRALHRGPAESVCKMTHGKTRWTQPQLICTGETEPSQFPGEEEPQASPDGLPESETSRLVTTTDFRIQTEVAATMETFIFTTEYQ


Tests used:
[1] = target: T7, human IL-2R βγ heterodimer, subunit-Fc knobs-into-holes fusion (human); test: SPR, receptor on CM5, 25°C, 1:1 fit
T7 construct: The entries may hold a leader peptide; also called Hu IL-2R βγ; human IL2-R β knob γ hole heterodimer

[2] = target: T1, murine IL-2R βγ heterodimer (β knob γ …); test: SPR, receptor on CM5, 25°C, 1:1 fit
[3] = target: T8, cynomolgus IL-2R βγ heterodimer (β knob γ hole Fc fusion) (cynomolgus); test: SPR, receptor on CM5, 25°C, 1:1 fit
T8 construct: also called Cyno IL-2R βγ

[4] = target: T7, human IL-2R βγ heterodimer, subunit-Fc …; test: SPR, receptor on CM5, 37°C, 1:1 fit
[5] = target: T1, murine IL-2R βγ heterodimer (β knob γ …); test: SPR, receptor on CM5, 37°C, 1:1 fit
[6] = target: T8, cynomolgus IL-2R βγ heterodimer (β knob …); test: SPR, receptor on CM5, 37°C, 1:1 fit
[7] = target: T2, CD25 on human T cells (activated T …); test: cell-based or functional assay
[8] = target: T3, IL-2R βγ heterodimer on human cells …; test: cell-based or functional assay
[9] = target: T9, human FAP expressed on stably transfected HEK293 cells (human, UniProt Q12884 1-760); test: FACS on FAP-expressing HEK cells
T9 construct: whole, on cells

[10] = target: T4, human IL-2R α-subunit, monomeric, with …; test: SPR, receptor on CM5, 25°C, 1:1 fit
[11] = target: T5, murine IL-2R α-subunit, recombinant …; test: SPR, receptor on CM5, 25°C, 1:1 fit
[12] = target: T6, cynomolgus IL-2R α-subunit, recombinant …; test: SPR, receptor on CM5, 25°C, 1:1 fit
[13] = target: T4, human IL-2R α-subunit, monomeric, with …; test: SPR, receptor on CM5, 37°C, 1:1 fit
[14] = target: T5, murine IL-2R α-subunit, recombinant …; test: SPR, receptor on CM5, 37°C, 1:1 fit
[15] = target: T6, cynomolgus IL-2R α-subunit, recombinant …; test: SPR, receptor on CM5, 37°C, 1:1 fit
[16] = target: T10, human FAP-His (human, UniProt Q12884 27-760); test: SPR bridging: construct captured on immobilized human IL-2R βγ, human FAP analyte, 1:1 fit, 25°C
T10 construct: also called Hu FAP; His-tagged human FAP; not shown: His tag

Kd [1] | Kd [2] | Kd [3] | Kd [4] | Kd [5] | Kd [6] | EC50 of STAT5 phosphorylation, Treg cells [7] | EC50 of STAT5 phosphorylation, CD8+ T cells [8] | EC50 of STAT5 phosphorylation, NK cells [8] | EC50 [9] | Kd [10] | Kd [11] | Kd [12] | Kd [13] | Kd [14] | Kd [15] | Kd [16] | Binder
9.7 nM and 9 nM | 112 nM and 79 nM | 11.5 nM and 11.6 nM | 19 nM and 22 nM | 186 nM and 219 nM | 29.2 nM and 30.4 nM | 0.015 nM | 14.5 nM | 3.32 nM | 0.64 nM | 16 nM and 16.2 nM | 43.3 nM and 44 nM | 16 nM and 16.2 nM | 28.8 nM and 28.2 nM | 67.5 nM and 61.1 nM | 36.5 nM and 35.6 nM | – | 28H1 Fab-IL-2 wt-Fab (other, also called 28H1 Fab-IL-2-Fab; FAP 28H1 wt) heavy: EVQLLESGGGLVQPGGSLRLSCAASGFTFSSHAMSWVRQAPGKGLEWVSAIWASGEQYYADSVKGRFTISRDNSKNTLYLQMNSLRAEDTAVYYCAKGWLGNFDYWGQGTLVTVSSASTKGPSVFPLAPSSKSTSGGTAALGCLVKDYFPEPVTVSWNSGALTSGVHTFPAVLQSSGLYSLSSVVTVPSSSLGTQTYICNVNHKPSNTKVDKKVEPKSCDSGGGGSGGGGSGGGG[no letters for about 150 residues]SGGGGSGGGGSGGGGEVQLLESGGGLVQPGGSLRLSCAASGFTFSSHAMSWVRQAPGKGLEWVSAIWASGEQYYADSVKGRFTISRDNSKNTLYLQMNSLRAEDTAVYYCAKGWLGNFDYWGQGTLVTVSSASTKGPSVFPLAPSSKSTSGGTAALGCLVKDYFPEPVTVSWNSGALTSGVHTFPAVLQSSGLYSLSSVVTVPSSSLGTQTYICNVNHKPSNTKVDKKVEPKSCD light: EIVLTQSPGTLSLSPGERATLSCRASQSVSRSYLAWYQQKPGQAPRLLIIGASTRATGIPDRFSGSGSGTDFTLTISRLEPEDFAVYYCQQGQVIPPTFGQGTKVEIKRTVAAPSVFIFPPSDEQLKSGTASVVCLLNNFYPREAKVQWKVDNALQSGNSQESVTEQDSKDSTYSLSSTLTLSKADYEKHKVYACEVTHQGLSSPVTKSFNRGEC
6.5 nM and 5.7 nM | 93 nM and 74 nM | 6.9 nM and 6.7 nM | 9.5 nM and 12.4 nM | 71 nM and 74 nM | 14 nM and 19 nM | – | – | – | 0.66 nM | 5 nM and 4.6 nM | 11.4 nM and 9.6 nM | 4.8 nM and 4.3 nM | 7.6 nM and 7.7 nM | 13.3 nM and 13.8 nM | 7.3 nM and 7.4 nM | 0.32 nM | 29B11 Fab-IL-2 wt-Fab (other, also called 29B11 Fab-IL-2-Fab) heavy: EVQLLESGGGLVQPGGSLRLSCAASGFTFSSYAMSWVRQAPGKGLEWVSAIIGSGGITYYADSVKGRFTISRDNSKNTLYLQMNSLRAEDTAVYYCAKGWFGGFNYWGQGTLVTVSSASTKGPSVFPLAPSSKSTSGGTAALGCLVKDYFPEPVTVSWNSGALTSGVHTFPAVLQSSGLYSLSSVVTVPSSSLGTQTYICNVNHKPSNTKVDKKVEPKSCDSGGGGSGGGGSGGGG[no letters for about 150 residues]SGGGGSGGGGSGGGGEVQLLESGGGLVQPGGSLRLSCAASGFTFSSYAMSWVRQAPGKGLEWVSAIIGSGGITYYADSVKGRFTISRDNSKNTLYLQMNSLRAEDTAVYYCAKGWFGGFNYWGQGTLVTVSSASTKGPSVFPLAPSSKSTSGGTAALGCLVKDYFPEPVTVSWNSGALTSGVHTFPAVLQSSGLYSLSSVVTVPSSSLGTQTYICNVNHKPSNTKVDKKVEPKSCD light: EIVLTQSPGTLSLSPGERATLSCRASQSVTSSYLAWYQQKPGQAPRLLINVGSRRATGIPDRFSGSGSGTDFTLTISRLEPEDFAVYYCQQGIMLPPTFGQGTKVEIKRTVAAPSVFIFPPSDEQLKSGTASVVCLLNNFYPREAKVQWKVDNALQSGNSQESVTEQDSKDSTYSLSSTLTLSKADYEKHKVYACEVTHQGLSSPVTKSFNRGEC
